T1: UNK ZnF1-3 (human, UniProt Q9C0B0 31-174)
T1 sequence: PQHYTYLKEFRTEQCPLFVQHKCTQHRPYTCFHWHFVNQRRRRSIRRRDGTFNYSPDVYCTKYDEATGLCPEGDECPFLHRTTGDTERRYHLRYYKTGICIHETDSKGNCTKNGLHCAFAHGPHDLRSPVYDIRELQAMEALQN

B1: 65298466_65308830_830_CDS_ENSG00000103707_ENST00000220058|human|control|control (ssRNA)
RNA: GGGAGUUCUACAGUCCGACGAUCGUUAACUUCUACCAAAUCCAGAAGUUUAAUGGUAUUCGCCAUCCAGAGCGUCUGCAACGGAAUUAUAUUUCCAAUGGCACGGUAAAGUCUGAAUAUUUGUUCUGAAGUUUGUUCCUCCCACAACAGAGGAUUGAGCAUCA
B2: chr3:115528449:115528450:-_ENSG00000185565_ENST00000490035|hu_mus|FALSE|FALSE (ssRNA)
RNA: GGGAGUUCUACAGUCCGACGAUCCGCACGCGCACAGUGGAGAAGAUGAAAAUGGUACUUCCUAAAGUUUGCGGCGUGACUCGUGUUCUGGGUUGCUGGGGCAAAAGGGAGGUGGGGGUAGAGAAAAGGGGAAUAUUUGGAAUGCAACAGAGGAUUGAGCAUCA
B3: chr21:30434530:30434531:-_ENSG00000156261_ENST00000286788|hu_hu|motif|central (ssRNA)
RNA: GGGAGUUCUACAGUCCGACGAUCAUCGUCUACUGCCCUUUCUAUGUCAUCCAUCAGAUUGUCUGUAGAGCCUCGAAGUACGGUGGUAGAAAUGGCGCCAUCUUCCUUUUCAUGCUUAAAAACCACCACCUGAGUAUCUCCAACCAACAGAGGAUUGAGCAUCA
B4: chr4:88379012:88379013:+_ENSG00000170502_ENST00000302174|hu_mus|FALSE|FALSE (ssRNA)
RNA: GGGAGUUCUACAGUCCGACGAUCGUCGCUGAUGUCCACCCACUUCACCUUCCCUGCGUCAUCUCCGGCCUCCAGGGUGAGGUUGUCCAUGGUCUCCCCUGUUUCAUCAUGGUAGUUCACGGCUUCCGUCUCCAUCCACGCAUUCAACAGAGGAUUGAGCAUCA
B5: 130911969_130912702_1509_CDS_ENSG00000136699_ENST00000351288|human|control|control (ssRNA)
RNA: GGGAGUUCUACAGUCCGACGAUCGAAGCUCCCAGUGAAUGUGGGGGCCGUGAAGAGUCGGUGCUGGCGGUGGGGGAUGACCAGCUCUGGCUCCAGGAAUAGCUGCUCACCUUUCUGAAUCAUCUCAGCCAGGUUGGGCUGGGCCAACAGAGGAUUGAGCAUCA
B6: chr5:69964302:69964303:+_ENSMUSG00000029208_ENSMUST00000154728|mus_mus|FALSE|FALSE (ssRNA)
RNA: GGGAGUUCUACAGUCCGACGAUCCAGUAUCAAGACUUUUUCUUGGAGUAAUGUAUUUUUCAGUUUGUUAUGAACAUGAAACUAAUCCAUUUAUUAGCUGUGUCAUUUAGGUAUGUUUAGUUAAUAGCUUCUAAUUUAUUAACACAACAGAGGAUUGAGCAUCA
B7: chr1:39494564:39494565:+_ENSG00000168653_ENST00000372967|hu_hu|hu_hu_hu_mus_True|38_88 (ssRNA)
RNA: GGGAGUUCUACAGUCCGACGAUCAUGCAUUCGCCUCAUCGUUUUGUGCCGAAGCAAGCACUCUUCGAAGUCAUCGAACUCUAUCUUGCACUCCUUUUCUGCCCGAGUCCCACCGAUCCCGUGUGCACACUCUAUCCACUCUUUCAACAGAGGAUUGAGCAUCA
B8: chr16:57153313:57153314:+_ENSMUSG00000022752_ENSMUST00000166897|mus_hu|motif|central (ssRNA)
RNA: GGGAGUUCUACAGUCCGACGAUCUUUCAAAAAAUCAACUGAAAGCGGUUAACUGAAUAUAAAUCUAUUUUACAGCAUUUACGGCGUUAAUUUAAAAAUCAACAUGCUGUAAAAUACUUACAUUAUUCACACAUAUAUAGACGGCAACAGAGGAUUGAGCAUCA
B9: 113181949_113184194_628_3pUTR_ENSG00000138660_ENST00000274000|human|control|control (ssRNA)
RNA: GGGAGUUCUACAGUCCGACGAUCAGCGUAUAAAGCUUCUUCUUCUAGUCUUAACUUCUCUUCUUGUAAGGCUAACUCUUUUUGAAUUUUCUUAUCAAGAUCUUUUUGUUUUUCGGCAAUGGAAUCAUAAUGCCUUUCUCUUAGCAACAGAGGAUUGAGCAUCA
B10: 17260850_17260970_3741_3pUTR_ENSMUSG00000050240_ENSMUST00000090190|mouse|control|control (ssRNA)
RNA: GGGAGUUCUACAGUCCGACGAUCUUGGUCUGAAGUAAAAAUCAAAAGGAAAAUGAAAAGCCAUGAAGCAACAUGAUAAGGUCUAUAGGCCCAUCUGGGACAGAACACAGACACUCUUGGUCUUGCCUUGCCCCUUGCAGAAGCCAACAGAGGAUUGAGCAUCA
B11: chr9:79618081:79618082:-_ENSMUSG00000032328_ENSMUST00000034878|mus_mus|FALSE|FALSE (ssRNA)
RNA: GGGAGUUCUACAGUCCGACGAUCCUUCAUUAAAGAGGAUGUGUAUACAUAUCCAUAUUUGUUAGACCUGUAUGCAAAAAAUUUAAUGAAAUAUGGAAGAAAUUAGGAUUUCAAAUUUUUCUGGAAUAUUAUACUCAGUCACUUCAACAGAGGAUUGAGCAUCA
B12: chr1:89688648:89688649:+_ENSMUSG00000026289_ENSMUST00000027512|mus_hu|motif|central (ssRNA)
RNA: GGGAGUUCUACAGUCCGACGAUCUGGCCUUCAUCACAACCCCUGAAACGGAAAGAUGGCGCUGCUGUGCUUCUGAGCCGGGGCUUCUUGCACUAAAGCACCAAGGGCAUCGCACACAGGCUUGGCAGAGGGGCCAUGGCCAGACAACAGAGGAUUGAGCAUCA
B13: 48270083_48270203_4574_3pUTR_ENSMUSG00000038143_ENSMUST00000110367|mouse|control|control (ssRNA)
RNA: GGGAGUUCUACAGUCCGACGAUCAGUGAAAAUAUUUUAUAUUGAUUUUUAUGAAUUCAUUAUGGUAUAUGGCUCCAAAACUCAUCUGACACUAAACUGAAUAUAACUUUAUCUCUGGUCAUUUUCCUGGGAUUAGAUCUAACCCAACAGAGGAUUGAGCAUCA
B14: chr7:141450121:141450122:+_ENSG00000106028_ENST00000265304|hu_mus|hu_hu_hu_mus_True|18_28 (ssRNA)
RNA: GGGAGUUCUACAGUCCGACGAUCUCAUCCGUUCUAUGCCUUUUCUUUUGUCUGGUCACUCAGAAAUAUAAUGUUAUCAGCUAUGAUUGUUGUUGCUUGCCGCCUCACAUUAUUUUUAUCCAUGUAUUCGCCAUAGUCCACUUUCAACAGAGGAUUGAGCAUCA

The list shows a part of the results.

The target of the assay is T1, UNK ZnF1-3. In words: nsRBNS (natural sequence RNA bind-n-seq); RBNS binding buffer (assumed for nsRBNS): 25 mM Tris pH 7.5, 150 mM KCl, 3 mM MgCl2, 0.01% Triton X-100, 500 ug/ml BSA, 20 U/ml SUPERase-In, 4 C; UNK is unkempt and MSI1 is Musashi-1; names of the RNAs are library labels; protein concentration not given here; high values mean tight binding.
Regarding B1, the binding signal was found to be 1.08 enrichment R.

Regarding B2, the binding signal was found to be 1.9 enrichment R.

For the molecule B3, the binding signal was determined as 0.995 enrichment R.

On to B4, for which the binding signal was 0.539 enrichment R.

The molecule B5 displayed a binding signal of 0.84 enrichment R.

In turn, B6 showed a binding signal of 0.278 enrichment R.

With B7, the binding signal amounted to 0.727 enrichment R.

In turn, B8 came in with a binding signal of 0.457 enrichment R.

Turning to B9, the binding signal was 0.358 enrichment R.

B10 came in with a binding signal of 1.39 enrichment R.

B11 registered a binding signal of 1.21 enrichment R.

B12 showed a binding signal of 1.16 enrichment R.

Take B13: the binding signal worked out at 2.96 enrichment R.

B14: the binding signal is 0.436 enrichment R.

(Values after article PMC12136788.)
